From PubChem BioAssay AID1508623 (National Center for Advancing Translational Sciences (NCATS), 2021)
Among all 48,000 compounds or so, about 450 (0.94%) were called active. Roughly 19% stayed inconclusive and do not appear here. The call rests on the fitted dose curve; in most records, active means well fitted inhibition curve with a large enough effect; inconclusive means small, poorly fitted or top-dose-only effect; inactive means no such curve, though single readings can be large or run the other way. Some of the results follow.

Assay: Primary qHTS for Identification of Small Molecule Inhibitors of Huntingtin Promoter Activity; further: nearly all actives have a fitted effect of over 50% in size
Conditions: HEK293 HTT promoter firefly luciferase reporter (activity 0% = vehicle and -100% = no light), 24 h; series mostly up to 57.5 µM; activity change, negative = inhibition: at the top concentration
Method in brief: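 Firefly luciferase signal from promoter-reporter HEK293 cells was scaled between vehicle (0%) and zero RLU (-100%). Compounds were tested at final concentrations of up to 57.5 uM over 24 h at 37 degrees C. PTC124 at 50 uM final served as control inhibitor.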

Row | Structure (SMILES) | activity change, negative = inhibition
1 | CC(C)OCCCNC(=O)CN1C(=O)COc2ccc(S(=O)(=O)N3CCCCCC3)cc21 | inactive: -2.68%
2 | COCc1c(C(C)C)nc(C(C)C)c(/C=C/[C@@H](O)C[C@@H](O)CC(=O)O)c1-c1ccc(F)cc1 | inactive: 10.9%
3 | CCC(Oc1ccccc1)C(=O)Nc1cc(-c2cccc(C)c2)nn1-c1ccccc1 (stereo not drawn) | inactive: -6.35%
4 | COc1ccc(-n2c(C)c(C(C)=O)c3cc(OC(=O)COc4ccccc4)ccc32)cc1 | inactive: -18.8%
5 | Cc1cc(-c2ccc(C)c(S(=O)(=O)NCc3cccc(Br)c3)c2)on1 | inactive: -24.1%
6 | CCCS(=O)(=O)N1CC(=O)N(c2cccc(Cl)c2C)C(C)(C(=O)NC2CCCC2)C1 (stereo not drawn) | inactive: -0.931%
7 | Cc1cc(C)cc(OCC(=O)N(Cc2cccs2)c2ccc(Cl)cc2)c1 | inactive: -14.5%
8 | CCCCCn1c(CCNC(=O)c2ccc(F)cc2)nc2ccccc21 | inactive: -14%
9 | Fc1ccc(-c2nn(-c3ccccc3Cl)c3c2cnc2ccccc23)cc1 | inactive: -32.3%
10 | COc1ccc(-n2nc(C(=O)N3CCN(c4cccc(C)c4C)CC3)c3c4ccccc4n(C)c3c2=O)cc1Cl | inactive: -10.7%
11 | Cc1ccc(CNC(=O)Cc2c(C)c3c(cc(C)c4c(C)coc43)oc2=O)cc1 | inactive: 7.8%
12 | COc1cccc(CNC(=O)Cn2ncn3nc(-c4cccs4)cc3c2=O)c1OC | inactive: -14.5%
13 | O=C(c1ccc2c(c1)N(Cc1ccc(F)cc1)C(=O)c1ccccc1S2(=O)=O)N1CCCC1 | inactive: -11.6%
14 | CCC(=O)N1CCCc2cc(S(=O)(=O)N3CCC(C(=O)NC4CCCCC4)CC3)ccc21 | inactive: -12.9%
15 | COc1ccccc1Cn1c(CNS(=O)(=O)c2ccc(C(C)C)cc2)nc2cccnc21 | inactive: -11.8%
16 | Fc1ccccc1Cc1cn2cc(-c3ccc(Cl)cc3)nc2s1 | inactive: 3.1%
17 | COc1ccccc1NC(=O)c1oc2ccccc2c1NC(=O)c1cccc(OC)c1OC | inactive: -25.3%
18 | Cc1ccccc1Nc1c(-c2cc(Br)ccc2F)nc2ccccn12 | inactive: -0.687%
19 | CCOC(=O)C1CCC(CN(Cc2ccccc2)S(=O)(=O)c2ccc(Br)cc2)CC1 (stereo not drawn) | inactive: -14.3%
20 | COc1cc(NC(=O)CCS(=O)(=O)c2ccc3c(c2)CC(=O)N3C)cc(OC)c1OC | inactive: -5%
21 | CCOc1ccc(-c2cc(C(=O)Oc3ccc(C#N)cc3)no2)cc1 | inactive: 22.9%
22 | COc1ccc(/C=C/c2nc(C#N)c(NCc3ccc(F)cc3)o2)cc1OC | inactive: -12.2%
23 | COc1ccc(N2CCN(CCCNC(=O)c3cc(Nc4ccc(OC)cc4OC)nc4ccccc34)CC2)cc1 | inactive: -19%
24 | O=C(CCS(=O)(=O)c1ccccc1)N(Cc1cccnc1)c1nc2ccc(Cl)cc2s1 | inactive: 0.0578%

Row | Structure (SMILES) | activity change, negative = inhibition
25 | CCCN1Cc2cccc(C(=O)Nc3ccc(C(C)=O)cc3)c2C1=O | inactive: -22.6%
26 | COc1cccc(C(=O)c2c(N)c(-c3nc(-c4ccccc4)cs3)c3ccccn23)c1 | inactive: -1.14%
27 | Cc1cccc(-n2c(=O)c3c(c4cc(C)ccc4n3C)n(CC(=O)N3CCCC3)c2=O)c1 | inactive: -21.7%
28 | O=C(CN1C(=O)COc2ccccc21)NCCc1ccc(Cl)cc1 | inactive: -12%
29 | Cc1ccc(CNC(=O)c2ccc(NC(=O)N3CCSc4ncccc43)cc2)cc1 | inactive: -30.4%
30 | CCc1ccc(-n2c(=O)c3c4c(sc3n(CC(=O)N3CCCCC3CC)c2=O)CCC4)cc1 (stereo not drawn) | inactive: -15.7%
31 | Cc1ccc(NC(=O)Cn2c(=O)n(Cc3nc(C)no3)c(=O)c3ccccc32)c(Cl)c1 | inactive: 0.653%
32 | Cc1c(CNC2CCCCC2)c(C(=O)O)c(C)n1Cc1cccc(Cl)c1 | inactive: -10.6%
33 | CCOc1ccccc1NC(=O)c1nc(SC(C)C)ncc1Cl | inactive: -25.2%
34 | CCc1ccc(NC(=O)CN2C(=O)C(c3ccc(Cl)cc3)=NC23CCCCC3)cc1 | inactive: -29.1%
35 | Cc1c(C(=O)Nc2cccc(Cl)c2)sc2nc3n(c(=O)c12)N=C(c1cccc(Br)c1)CS3 | inactive: -15.1%
36 | O=c1c2sc3ccccc3c2n(Cc2cccc(F)c2)c(=O)n1Cc1ccccc1 | inactive: -12.1%
37 | CCOC(=O)Cn1c(=O)n(CC2CCCO2)c2nc(-c3ccccc3OC)nc(C(N)=O)c21 (stereo not drawn) | inactive: 1.85%
38 | Cc1ccc2c(c1Br)C(O)(CC(=O)c1ccc(F)cc1)C(=O)N2 (stereo not drawn) | inactive: -9%
39 | Cc1cccc2sc(N(Cc3cccnc3)C(=O)CCc3ccccc3)nc12 | inactive: -24.9%
40 | CCOc1ccccc1C(=O)N(Cc1ccco1)Cc1ccco1 | inactive: -8.21%
41 | Cc1c(Cl)cccc1NC(=O)CC1Oc2ccccc2NC1=O (stereo not drawn) | inactive: -7.47%
42 | COc1ccccc1CNC(=O)C1CCCN(S(=O)(=O)c2ccc3c(c2)oc(=O)n3C)C1 (stereo not drawn) | inactive: -24.5%
43 | COc1ccc(-c2cc(C(=O)Nc3c(C(=O)c4ccc(C)cc4)oc4ccccc34)no2)cc1 | inactive: 7.13%
44 | O=C(c1ccc2c(c1)N(Cc1ccccc1F)C(=O)c1ccccc1S2(=O)=O)N1CCC(Cc2ccccc2)CC1 | inactive: -12.8%
45 | CCC(CC)C(=O)OCc1cc(=O)n2nc(C3CC3)sc2n1 | inactive: -15.6%
46 | CC1=C(c2ccc(Cl)cc2)S(=O)(=O)NC1=NCCCN1CCN(c2cc(C)ccc2C)CC1 | inactive: -20.2%
47 | O=C(CCCn1c(=O)c2cccn2c2ccccc21)Nc1cc(C(F)(F)F)ccc1Cl | inactive: -1.03%
48 | COc1ccc(Cn2c(CCC(=O)Nc3cc(OC)c(OC)c(OC)c3)nc3cccnc32)cc1 | inactive: -21.2%
